Scores whose standard error is large were omitted. Not listed are two conditions whose scores span a narrow range. Names with del lack the residues named; names with ins carry added residues between the positions named. For part of these data: The concentration of ogerin is not given here.

The labels stand for the following.
B1: GPR68, Q15743 (parent)
chain: MGNITADNSSMSCTIDHTIHQTLAPVVYVTVLVVGFPANCLSLYFGYLQIKARNELGVYLCNLTVADLFYICSLPFWLQYVLQHDNWSHGDLSCQVCGILLYENIYISVGFLCCISVDRYLAVAHPFRFHQFRTLKAAVGVSVVIWAKELLTSIYFLMHEEVIEDENQHRVCFEHYPIQAWQRAINYYRFLVGFLFPICLLLASYQGILRAVRRSHGTQKSRKDQIQRLVLSTVVIFLACFLPYHVLLLVRSVWEASCDFAKGVFNAYHFSLLLTSFNCVADPVLYCFVSETTHRDLARLRGACLAFLTCSRTGRAREAYPLGAPEASGKSGAQGEEPELLTKLHPAFQTPNSPGSGGFPTGRLA

Series [1] covers variants of B1. In words: cAMP reporter score (Enrich2 score, wild type = 0); higher = more signal; HEK293T, FACS bins.
In series [2] the parent is B1. In words: surface expression score (Enrich2 score, wild type = 0); higher = more signal; HEK293T, FACS bins.

With P325_E326insGSG, the cAMP reporter score in series [1] (pH 5.5) was found to be 1.35; in series [1] (pH 6, modulator: ogerin), 0.628; in series [1] (pH 6.5, modulator: ogerin) it was 1.46. The surface expression score in series [2] is 1.76.

On to A327_S328insGSG, for which the cAMP reporter score in series [1] (pH 5.5) was found to be 0.977; in series [1] (pH 6), 0.781; in series [1] (pH 6, modulator: ogerin), 1.3; in series [1] (pH 6.5, modulator: ogerin), 1.52. The surface expression score in series [2] turned out to be 1.45.

Regarding A327_S328insG, the cAMP reporter score was found to be 1.55 in series [1] (pH 5.5); 0.365 in series [1] (pH 6); 0.566 in series [1] (pH 6, modulator: ogerin); 1.25 in series [1] (pH 6.5, modulator: ogerin). Besides, the surface expression score in series [2] is 0.888.

For E326_A327insGSG, the cAMP reporter score in series [1] (pH 5.5) amounted to 1.08; in series [1] (pH 6), 1.3; in series [1] (pH 6, modulator: ogerin) it was 1.87; in series [1] (pH 6.5, modulator: ogerin), 2. Moreover, the surface expression score in series [2] worked out at 1.68.

K330_S331insG: the cAMP reporter score in series [1] (pH 5.5) was 0.534; in series [1] (pH 6), -0.053; in series [1] (pH 6, modulator: ogerin), 0.309; in series [1] (pH 6.5, modulator: ogerin), 0.129. The surface expression score in series [2] was -0.497.

In the case of G329_K330del, the cAMP reporter score in series [1] (pH 5.5) came to 0.597; in series [1] (pH 6, modulator: ogerin), 0.676; in series [1] (pH 6.5, modulator: ogerin), 1.23. Besides, the surface expression score in series [2] was 0.031.

As for S328_G329insGS, the cAMP reporter score in series [1] (pH 5.5) stood at 0.728; in series [1] (pH 6) it was 0.838; in series [1] (pH 6, modulator: ogerin) it was 0.781; in series [1] (pH 6.5, modulator: ogerin), 0.676. The surface expression score in series [2] amounted to 0.568.

Regarding G332_A333insG, the cAMP reporter score in series [1] (pH 5.5) was 0.224; in series [1] (pH 6), 0.348; in series [1] (pH 6, modulator: ogerin), 1.03; in series [1] (pH 6.5, modulator: ogerin), -0.696. For the same variant, the surface expression score in series [2] came to 0.864.

Consider G329A, for which the cAMP reporter score in series [1] (pH 5.5) was determined as 1.9; in series [1] (pH 6), 0.718; in series [1] (pH 6, modulator: ogerin), 1.76; in series [1] (pH 6.5, modulator: ogerin), 0.842. Further, the surface expression score in series [2] amounted to 0.645.

For the variant G329W, the cAMP reporter score in series [1] (pH 5.5) was -0.395; in series [1] (pH 6, modulator: ogerin), 0.263; in series [1] (pH 6.5, modulator: ogerin), 0.124. Further, in series [2], the surface expression score was -0.363.

Regarding G329M, the cAMP reporter score was 0.67 in series [1] (pH 5.5); 1.43 in series [1] (pH 6); 1.41 in series [1] (pH 6, modulator: ogerin); 0.433 in series [1] (pH 6.5, modulator: ogerin). For the same variant, in series [2], the surface expression score stood at 0.239.

As to G329Y, the cAMP reporter score was -0.789 in series [1] (pH 5.5); -1.42 in series [1] (pH 6); -0.835 in series [1] (pH 6, modulator: ogerin); -0.694 in series [1] (pH 6.5, modulator: ogerin). Moreover, the surface expression score in series [2] was -1.13.

In the case of G329V, the cAMP reporter score in series [1] (pH 5.5) is 2.18; in series [1] (pH 6), 1.23; in series [1] (pH 6, modulator: ogerin), 2.42; in series [1] (pH 6.5, modulator: ogerin), 2.47. Moreover, the surface expression score in series [2] is 0.613.

As for G329H, the cAMP reporter score in series [1] (pH 5.5) was -0.045; in series [1] (pH 6), -0.34; in series [1] (pH 6, modulator: ogerin) it was 0.356; in series [1] (pH 6.5, modulator: ogerin), -0.316. In addition, in series [2], the surface expression score is -0.245.

As to G329P, the cAMP reporter score in series [1] (pH 5.5) was found to be 0.759; in series [1] (pH 6) it was 0.011; in series [1] (pH 6, modulator: ogerin), 0.75; in series [1] (pH 6.5, modulator: ogerin), 1.48. The surface expression score in series [2] came out at 1.58.

Turning to G329F, the cAMP reporter score in series [1] (pH 5.5) was -0.202; in series [1] (pH 6) it was -0.239; in series [1] (pH 6, modulator: ogerin), -0.605; in series [1] (pH 6.5, modulator: ogerin), -0.858. Besides, in series [2], the surface expression score is -0.522.

For G329C, the cAMP reporter score in series [1] (pH 5.5) amounted to 0.519; in series [1] (pH 6) it was 0.879; in series [1] (pH 6, modulator: ogerin) it was 1.12; in series [1] (pH 6.5, modulator: ogerin) it was 0.205. Besides, in series [2], the surface expression score came to 0.059.

Turning to G329E, the cAMP reporter score in series [1] (pH 5.5) turned out to be 0.578; in series [1] (pH 6, modulator: ogerin) it was 1.03; in series [1] (pH 6.5, modulator: ogerin) it was 2.08. The surface expression score in series [2] amounted to 1.32.

In the case of G329I, the cAMP reporter score in series [1] (pH 5.5) is 1.13; in series [1] (pH 6), 0.803; in series [1] (pH 6, modulator: ogerin) it was 1.27; in series [1] (pH 6.5, modulator: ogerin), 1.32. The surface expression score in series [2] is -0.16.

As to G329S, the cAMP reporter score in series [1] (pH 5.5) was found to be 1.13; in series [1] (pH 6, modulator: ogerin) it was 0.699; in series [1] (pH 6.5, modulator: ogerin), 0.663. For the same variant, in series [2], the surface expression score worked out at 1.19.

Consider G329D, for which the cAMP reporter score was -0.771 in series [1] (pH 5.5); -0.216 in series [1] (pH 6); -0.737 in series [1] (pH 6, modulator: ogerin); -0.693 in series [1] (pH 6.5, modulator: ogerin). The surface expression score in series [2] was -0.186.

With G329N, the cAMP reporter score stood at 1.14 in series [1] (pH 5.5); 1.65 in series [1] (pH 6); 1.02 in series [1] (pH 6, modulator: ogerin); 2.71 in series [1] (pH 6.5, modulator: ogerin). Further, the surface expression score in series [2] was 0.87.

In the case of G329T, the cAMP reporter score was -0.363 in series [1] (pH 5.5); 0.211 in series [1] (pH 6); -0.119 in series [1] (pH 6, modulator: ogerin); -0.132 in series [1] (pH 6.5, modulator: ogerin). Further, in series [2], the surface expression score came to 0.249.

For G329R, the cAMP reporter score is 1.86 in series [1] (pH 5.5); -0.226 in series [1] (pH 6); 1.71 in series [1] (pH 6, modulator: ogerin); 1.05 in series [1] (pH 6.5, modulator: ogerin). Also, the surface expression score in series [2] amounted to 0.411.

Consider G329L, for which the cAMP reporter score in series [1] (pH 5.5) was found to be 1.55; in series [1] (pH 6), 0.884; in series [1] (pH 6, modulator: ogerin) it was 1.59; in series [1] (pH 6.5, modulator: ogerin) it was 2.37. Further, the surface expression score in series [2] came out at 1.4.

With G329_S331del, the cAMP reporter score came to 1.86 in series [1] (pH 5.5); 0.506 in series [1] (pH 6); 0.778 in series [1] (pH 6, modulator: ogerin); 1.37 in series [1] (pH 6.5, modulator: ogerin). Further, in series [2], the surface expression score was found to be 0.639.

Consider A324_E326del, for which the cAMP reporter score in series [1] (pH 5.5) is 0.505; in series [1] (pH 6) it was -0.582; in series [1] (pH 6, modulator: ogerin), 0.357; in series [1] (pH 6.5, modulator: ogerin) it was -0.441. In addition, the surface expression score in series [2] was -0.492.

On to G332_A333del, for which the cAMP reporter score was 0.282 in series [1] (pH 5.5); 0.011 in series [1] (pH 6); 0.136 in series [1] (pH 6, modulator: ogerin); 0.4 in series [1] (pH 6.5, modulator: ogerin). For the same variant, the surface expression score in series [2] is 0.249.

In the case of G329del, the cAMP reporter score in series [1] (pH 5.5) was 0.265; in series [1] (pH 6), -0.438; in series [1] (pH 6, modulator: ogerin), -0.249; in series [1] (pH 6.5, modulator: ogerin), 0.569. Moreover, the surface expression score in series [2] was found to be 0.097.

With A327_S328insGS, the cAMP reporter score is 1.05 in series [1] (pH 5.5); 0.907 in series [1] (pH 6); 1.03 in series [1] (pH 6, modulator: ogerin); 1.07 in series [1] (pH 6.5, modulator: ogerin). Also, the surface expression score in series [2] was 1.09.

For the variant A324_P325del, the cAMP reporter score in series [1] (pH 5.5) was determined as 0.141; in series [1] (pH 6), 0.357; in series [1] (pH 6, modulator: ogerin), 0.576; in series [1] (pH 6.5, modulator: ogerin) it was 0.534. Besides, in series [2], the surface expression score worked out at 0.43.
